Source: the RNAGym collection of RNA variant scans (doi:10.1073/pnas.2313332121)
Variants at the background level are over-represented here.

B1: TPR 5TU (parent)
chain: GGAUCUUCUCGAUCUAACAAAAAAGACAAAUCUGCCACAAAGCUUGAGAGCAUCUUCGGAUGCAGAGGCGGCAGCCUUCGGUGGCGCGAUAGCGCCAACGUUCUCAACUAUGACACGCAAAACGCGUGCUCCGUUGAAUGGAGUUUAUCAUG

Variants of: B1
Assay: polymerase ribozyme fitness, log enrichment relative to wild type (log ratio); higher = more active; in vitro selection for triplet polymerase activity
Method in brief: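 Genotype fitness is the logarithm of its enrichment divided by wild-type enrichment, using inverse-variance-weighted averages of replicates. That logarithm is base 2. Enrichment was measured by Illumina sequencing of input and output libraries from one triplicate in vitro selection round, with frozen incubation at −7 °C, on PCR-built, transcribed mutant libraries of each subunit of a heterodimeric triplet polymerase ribozyme, retaining genotypes with ≥10 input reads and ≥1 read per output.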

Variant	polymerase ribozyme fitness (log ratio)
GGAUCUUCUCGAUCUAACAAAAAAGACAAAUCUGCCACAAAGCUUGAGAGCAUCUUCGGAUGCAGAGGCGGCAGCCUUCGGUGGUGCGAUAGCGUCAACGUUCUCAACUAUGACACGCAAAACGCGUGCUCCAUUGAAUGGAGUUUAUCAUG [C85U C95U G133A]	-4
GGAUCUUCUCGAUCUAACAAAAAAGACAAAUCUGCCACAAAGCUUGAGAGCAUCUUCGGAUGCAGAGGCGGCAGCCUUCGGUGGCACGAUAGCGCCAACGUUCUCAACUAUGACACGCAAAGCGCGUGCUCCGUUGAAUGGAGUUUAGCAUG [G86A A122G U148G]	≤ -4.2
GGAUCUUCUCGAUCUAACAAAAAAGACAAAUCUGCCACAAAGCUUGAGAGCAUCUUCGGAUGCAGAGGCGGCAGCCUUCGGUGGUGCGAUAGCGCCAACGUUCUCAACUAUGACAAGCAAAGCGCGUGCUCCGUUGAAUGGAUUUUAUCAUG [C85U C116A A122G G143U]	≤ -4.2
GGAUCUUCUCGAUCUAACAAAAAAGACAAAUCUGCCACAAAGCUUGAGAGCAUCUUCGGAUGCAGAGGCGGCAGCCUUCGGUGGCACGAUAGCGCCAACGUUCUCAACUAUCACACGCAAAGCGCGUGCUCCGUUGAAUGGAGUUUAUCAUG [G86A G112C A122G]	≤ -4.2
GGAUCUUCUCGAUCUAACAAAAAAGACAAAUCUGCCACAAAGCUUGAGAGCAUCUUCGGAUGCAGAGGCGGCAGCCUUCGGUGGUGCGAUAGCGCCAACGGUCUAAACGGUGACACGCAAAACGCGUGCUCCGUUGAAUGGAGUUUAUCAUG [C85U U101G C105A U109G A110G]	-4.19
GGAUCUUCUCGAUCUAACAAAAAAGACAAAUCUGCCACAAAGCUUGAGAGCAUCUUCGGAUGCAGAGGCGGCAGCCUUCGGUGGUGCGAUAGCGCCAAGGUUCUCAACUAUGACACGCAAAACGCGUGCUCCGUUUAAUGGAGUUUAUCAUG [C85U C99G G136U]	-2.88
GGAUCUUCUCGAUCUAACAAAAAAGACAAAUCUGCCACAAAGCUUGAGAGCAUCUUCGGAUGCAGAGGCGGCAGCCUUCGGUGGUGCGAUAGCCCCAACGUUCUCAACUAUGACACGCAAAACGCGUGCUCCGUUGAAUGGAGUUUAUCAUG [C85U G94C]	-0.28
GGAUCUUCUCGAUCUAACAAAAAAGACAAAUCUGCCACAAAGCUUGAGAGCAUCUUCGGAUGCAGAGGCGGCAGCCUUCGGUGGUUCGAUAGUGCCAACGUUCUCAACUAUGACACGCAAAACGCGUGCACCGUUGAUUGGAGUUUAUCAUG [C85U G86U C93U U130A A138U]	≤ -4.2
GGAUCUUCUCGAUCUAACAAAAAAGACAAAUCUGCCACAAAGCUUGAGAGCAUCUUCGGAUGCAGAGGCGGCAGCCUUCGGUGGUGCGAUAGCGCCAACGUUCUCAACUAUGACACGGAAAACGCGUGCUCCGUUGAAUCGAGUUUAUCAUG [C85U C118G G140C]	≤ -4.2
GGAUCUUCUCGAUCUAACAAAAAAGACAAAUCUGCCACAAAGCUUGAGAGCAUCUUCGGAUGCAGAGGCGGCAGCCUUCGGUGGUGCGAUAGUGCCAACGUUCUCAGCUAUGACACACAAAACGCGUGCUCCGUUGAAUUGAGUUUAUCAUG [C85U C93U A107G G117A G140U]	≤ -4.2
GGAUCUUCUCGAUCUAACAAAAAAGACAAAUCUGCCACAAAGCUUGAGAGCAUCUUCGGAUGCAGAGGCGGCAGCCUUCGGUGGUGUGAUAGCGCCAACGUUCUCAACUAUGACACGCAAAACGCGUGCUCCGUUGAAUGGAGUUUAUCAUG [C85U C87U]	0.308
GGAUCUUCUCGAUCUAACAAAAAAGACAAAUCUGCCACAAAGCUUGAGAGCAUCUUCGGAUGCAGAGGCGGCAGCCUUCGGUGGCCCGAUAGCGCUAACGUUCUCAACUAUGACACGCAAAACGCGUGCUCCGUUGAAUGGAGUUUAUCAUG [G86C C96U]	-2.67
GGAUCUUCUCGAUCUAACAAAAAAGACAAAUCUGCCACAAAGCUUGAGAGCAUCUUCGGAUGCAGAGGCGGCAGCCUUCGGUGGUCCGAUAGCGACAACGUUCUCAACUAUGACACGCAAAACGCGUGCUCCGUUGAAUGGAGACUAUCAUG [C85U G86C C95A U144A U145C]	≤ -4.2
GGAUCUUCUCGAUCUAACAAAAAAGACAAAUCUGCCACAAAGCUUGAGAGCAUCUUCGGAUGCAGAGGCGGCAGCCUUCGGUGGCACGAUAUCGCCAACGUUCUCAGCUAUGACACGCAAAACGCGUGCUCCGUUGAAUGGAGUUUAUCAUG [G86A G92U A107G]	≤ -4.2
GGAUCUUCUCGAUCUAACAAAAAAGACAAAUCUGCCACAAAGCUUGAGAGCAUCUUCGGAUGCAGAGGCGGCAGCCUUCGGUGGUGCGAUAGCGCCAACGUUCUCAACUAUGACACGCAAACCGCGUGCUCCAUUGAAUCGAGUUUAUCAUG [C85U A122C G133A G140C]	≤ -4.2
GGAUCUUCUCGAUCUAACAAAAAAGACAAAUCUGCCACAAAGCUUGAGAGCAUCUUCGGAUGCAGAGGCGGCAGCCUUCGGUGGUGCGAUAGCGCCAACGUUCUCAACUAUGACACGCAAAACGCGUGCUCCGUUGAACGGAGUUUAUCAUG [C85U U139C]	-3.16
GGAUCUUCUCGAUCUAACAAAAAAGACAAAUCUGCCACAAAGCUUGAGAGCAUCUUCGGAUGCAGAGGCGGCAGCCUUCGGUGGUGCGAUAGCGCCAACGUUCUCAACUAUGACACGCAAAACGCGUGCUCCGUUGAAGGGAGUUUAUCAUG [C85U U139G]	-0.28
GGAUCUUCUCGAUCUAACAAAAAAGACAAAUCUGCCACAAAGCUUGAGAGCAUCUUCGGAUGCAGAGGCGGCAGCCUUCGGUGGUGCGAUAGCGCCAACGUUCUCAACUAUGACACACAAAACGCGUGCUCCGUUGAAUGCAGUUUAUCAUC [C85U G117A G141C G152C]	≤ -4.2
GGAUCUUCUCGAUCUAACAAAAAAGACAAAUCUGCCACAAAGCUUGAGAGCAUCUUCGGAUGCAGAGGCGGCAGCCUUCGGUGGCACGAUAGCGCCAACUUUCUCAACUAUGACACGCAAAACGCGUGCUCCGUUGAAUGGAGUUUAUCAUG [G86A G100U]	≤ -4.2

Variant	polymerase ribozyme fitness (log ratio)
GGAUCUUCUCGAUCUAACAAAAAAGACAAAUCUGCCACAAAGCUUGAGAGCAUCUUCGGAUGCAGAGGCGGCAGCCUUCGGUGGUGCGAUAUCGCUAACGUUCUCAACUAUGACACGCAAAACGCGUGCUCCGUUGUAUGGAGUUUAUCAUG [C85U G92U C96U A137U]	≤ -4.2
GGAUCUUCUCGAUCUAACAAAAAAGACAAAUCUGCCACAAAGCUUGAGAGCAUCUUCGGAUGCAGAGGCGGCAGCCUUCGGUGGCACGAUAGCGCCAACGUUCUCAACUAUGCCACGCAAAACGCGUGCUCCGUUGAAUGGAGUUUAUCAUG [G86A A113C]	-3.53
GGAUCUUCUCGAUCUAACAAAAAAGACAAAUCUGCCACAAAGCUUGAGAGCAUCUUCGGAUGCAGAGGCGGCAGCCUUCGGUGGCACGAUAGCGCCAACGUUCUCAACUAUGACACGCAAAACGCGUGCUCCGUUGAAUGGAUUUUAUCAUG [G86A G143U]	-3.07
GGAUCUUCUCGAUCUAACAAAAAAGACAAAUCUGCCACAAAGCUUGAGAGCAUCUUCGGAUGCAGAGGCGGCAGCCUUCGGUGGCCCGAUAGCGCCAAGGUUCUCAACGAUGACACGCAAAACGCGUGAUCCGUUGAAUGGAGUUUAGCAUG [G86C C99G U109G C129A U148G]	≤ -4.2
GGAUCUUCUCGAUCUAACAAAAAAGACAAAUCUGCCACAAAGCUUGAGAGCAUCUUCGGAUGCAGAGGCGGCAGCCUUCGGUGGUUCGAUAGCGCCAACGUUCUCAACUAUGACACGCAAAACGCGUGCUCCGUGGAAUGGAGUUUAUCAUG [C85U G86U U135G]	≤ -4.2
GGAUCUUCUCGAUCUAACAAAAAAGACAAAUCUGCCACAAAGCUUGAGAGCAUCUUCGGAUGCAGAGGCGGCAGCCUUCGGUGGCACGAUAGCGCCAACGUUGUCAACUAUGACACGCAAAACGCGUGCUCCGAUGAAUGGAGUUUAUCAUG [G86A C103G U134A]	≤ -4.2
GGAUCUUCUCGAUCUAACAAAAAAGACAAAUCUGCCACAAAGCUUGAGAGCAUCUUCGGAUGCAGAGGCGGCAGCCUUCGGUGGUGCGAUAGCGCCAACGUUCUCAACUAUGACACGCAAAACGCGUGCUCCGUUGAAUGGAGUGUAUCAUG [C85U U145G]	-2
GGAUCUUCUCGAUCUAACAAAAAAGACAAAUCUGCCACAAAGCUUGAGAGCAUCUUCGGAUGCAGAGGCGGCAGCCUUCGGUGGUGCGAUAGCGCCAACGUUCUCAACUAUGACACGCAAAACGCGUACUCCGUUGAAUGGAGUUUAUCAUG [C85U G128A]	-3.29
GGAUCUUCUCGAUCUAACAAAAAAGACAAAUCUGCCACAAAGCUUGAGAGCAUCUUCGGAUGCAGAGGCGGCAGCCUUCGGUGGUGCGAUAGCGCCAACGGUCUCAACUAUGACACGCAAAACGCGUGCUCCGUUGAAUGGAGUUUAUCAUG [C85U U101G]	-1.15
GGAUCUUCUCGAUCUAACAAAAAAGACAAAUCUGCCACAAAGCUUGAGAGCAUCUUCGGAUGCAGAGGCGGCAGCCUUCGGUGGUCCGUUAGCGCCAAAGUUCUCAAUUAUGACACGCAAAACGCGUGCUCCGUUGAAUGGAGUUUAUCAUG [C85U G86C A89U C99A C108U]	≤ -4.2
GGAUCUUCUCGAUCUAACAAAAAAGACAAAUCUGCCACAAAGCUUGAGAGCAUCUUCGGAUGCAGAGGCGGCAGCCUUCGGUGGUGCGAUAGCGCCAACGUUCUCAACUAUGACACGCAACACGCGUGCUCCGUUGAAUGGAGUUUAUCAUG [C85U A121C]	-0.139
GGAUCUUCUCGAUCUAACAAAAAAGACAAAUCUGCCACAAAGCUUGAGAGCAUCUUCGGAUGCAGAGGCGGCAGCCUUCGGUGGCACGUUAGCGCCAACGUUCUCAACUAUGACACGCAAAAUGCGUGCUCCGUUGAAUGGAGUUUAUCAUG [G86A A89U C123U]	-2.1
GGAUCUUCUCGAUCUAACAAAAAAGACAAAUCUGCCACAAAGCUUGAGAGCAUCUUCGGAUGCAGAGGCGGCAGCCUUCGGUGGCACGAUAGCGCCAUCGUUCUCAACUAUGACACGCAAAACGCGUGCUCCGUUGAUUGGAGUAUAUCAUG [G86A A98U A138U U145A]	≤ -4.2
GGAUCUUCUCGAUCUAACAAAAAAGACAAAUCUGCCACAAAGCUUGAGAGCAUCUUCGGAUGCAGAGGCGGCAGCCUUCGGUGGUGCGAUAGCGCCAACGUUCUCAACUAUGACACGCAAAACGCGUGCUCCGUUGAAUGUAGUUUAUCAUG [C85U G141U]	1.07
GGAUCUUCUCGAUCUAACAAAAAAGACAAAUCUGCCACAAAGCUUGAGAGCAUCUUCGGAUGCAGAGGCGGCAGCCUUCGGUGGUCCAAGAGCGCCAACGUUCUCAACUAUGACACGCAAUACGCGUACUCCGUUGAAUGGAGUUUAUCAUG [C85U G86C G88A U90G A121U G128A]	≤ -4.2
GGAUCUUCUCGAUCUAACAAAAAAGACAAAUCUGCCACAAAGCUUGAGAGCAUCUUCGGAUGCAGAGGCGGCAGCCUUCGGUGGUGCGAUAGCGCUAACGUUCUCAACUAUGACACGCAAAACGCGUGCUCCGUUGAAUGGAGUUUAUCAUG [C85U C96U]	-0.746
GGAUCUUCUCGAUCUAACAAAAAAGACAAAUCUGCCACAAAGCUUGAGAGCAUCUUCGGAUGCAGAGGCGGCAGCCUUCGGUGGUGCGAUAGCGCCAACGUUCUCAACUAUGACACACAAAACGCGUGCUCCGUUGAAUGGAGUUUAUCAUG [C85U G117A]	0.212
GGAUCUUCUCGAUCUAACAAAAAAGACAAAUCUGCCACAAAGCUUGAGAGCAUCUUCGGAUGCAGAGGCGGCAGCCUUCGGUGGUGCGAUAGCGCCAACGUUCUCAACUAUGACACGCAAAACGCGUGCUCCGCUGAAUGGAGAUUAUAAUG [C85U U134C U144A C149A]	-4.1
GGAUCUUCUCGAUCUAACAAAAAAGACAAAUCUGCCACAAAGCUUGAGAGCAUCUUCGGAUGCAGAGGCGGCAGCCUUCGGUGGUGCCAUAGCGCCAACGUUCUCAACUAUGACAGGCAAAACGCGUGCUCCGUUGAAUGGAGUUUAUCAUG [C85U G88C C116G]	≤ -4.2
